# Source: the supplement of paper PMC11417369
# The list shows a part of the results.
# System: PF3D7_0420300 AP2 domain 1 (GST-tagged)
# Test: gcPBM binding intensity (ln(normalized median fluorescence intensity)); higher = stronger DNA binding
# In short: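 Binding intensity is defined as the maximum Masliner-normalised natural-log median intensity across replicate spots for either probe orientation. It was measured on an Agilent 4 × 180k array of primer-extended double-stranded 36-bp intergenic genomic probes and negative controls, to which GST-tagged P. falciparum DNA-binding domains made in E. coli were applied for 1 h in 1× PBS with 1% milk, 0.2 mg/ml BSA, 0.5% salmon testes DNA and 0.03% Triton X-100. Detection was by Alexa488 anti-GST antibody and scanning at 488 nm.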
row,Sequence,gcPBM binding intensity (ln)
1,ATATATATATATCATAGTACACATATGTGTCTCGTG [XGTACX_site774],9.51
2,ATATATATTTATTTATGTACGAATAAATTTACGAAT [XGTACX_site5190],9.06
3,AATATCATTATATAAGTGCATTTTTTAAAAGATAAA [GTGCAC_site9479],9.1
4,TTAATAGGTCGAAGTAGTACATAAAAATATATATAT [XGTACX_site5960],9.33
5,TAAACATTGTAAAGGAGTACAAAATTTTTTTTATGA [XGTACX_site7757],9.04
6,AATAATAAAAAATACACACACATATATATATATTAC [CACACA_site3464],10.2
7,AACATACAGAAACACACACACACACCCACACCCACA [CACACA_site493],10.3
8,CATACACAAGAAAATTCACACACACCCATATATATA [CACACA_site9288],10.1
9,TCTTACAAAAAACAAACAGAGAAAAATATAAGGAAA [XGTACX_negctrl_site520],9.53
10,TTTTTTTTTTTGTATCGTACATTTATAATGTTTATA [XGTACX_site6804],9.28
11,TTTTTTTCATATAACACACACACAAAAATAATGTGG [CACACA_site3688],9.67
12,TTTTCTAAATATTATAGTACTCTTAATAATATTAAC [XGTACX_site4222],9
13,TAAAAAATTAATAAAGTGCATAAATATTACAATATT,9.22
14,TTAACAAAATATAGCACACATAAATATATATTTATG [CACACA_site351],9.41
15,ATTCATATATTTATTGCATGCAAAGTAAAATAAATA [TGCATGCA_site307],8.92
16,AATATTAAAATATAAACACACAAAATTCAATTATAT [CACACA_site5971],9.61
17,GACATATTAGAAGGGTGTACATACTTTTAATCATTT [XGTACX_site1698],9.28
18,TACATATATATATGTATATATATATATATATAAATA [XGTACX_negctrl_site351],8.98
19,ATGAATAAATGAACATGTACATATATATATATATTA [XGTACX_site5005],9.29

row,Sequence,gcPBM binding intensity (ln)
1,ACATAACTGATATATACACACAATACAAATATAGAT [CACACA_site7328],9.93
2,AAATGTGCATTATGTTGTACAGTCGAAATTTTTTTT [XGTACX_site3812],9.19
3,AAATTAAAAAGAGCTTGTACAGATGTATACATAATA [XGTACX_site3882],9.49
4,TTTATAATTCTTACAACACACAATGTACATTTATAT [CACACA_site1261],9.42
5,AATTTATATGTTTTGTGTACACAATTTATTAAATTA [XGTACX_site6448],9.27
6,TATATGAAGCTATAGACACACATATAAAAATAGAAT [CACACA_site1313],9.47
7,TACATACAGATATATACACACATATAAAATATAGAT [CACACA_site6319],9.86
8,ATTATATATAAATATACACACATATATAAAATACAT [CACACA_site5298],9.65
9,AAGAGAAAAATATGGTTGCACTAAAAATATATATTT,9.17
10,TAATTTGAAAAATTGTGTACTCATAAAATAAATAAA [XGTACX_site2138],9
11,GATTTATATATATAAAATAATTGAATATTTTCTTTT [CACACA_negctrl_site801],8.96
12,ATAAAAAAATAAAACACACACATATAGATTATAGAT [CACACA_site7343],9.99
13,ATAGATGATATACGTAAACACACAAATAAAAAAAAT [CACACA_site9095],9.72
14,TTTATTTTTCATAATTGTACAAAAATAAATGGAAAC [XGTACX_site5144],9.19
15,TACAAATATAGACACACACACATATATATATATATA [CACACA_site585],9.66
16,ATAAAAGGAATATTTGCATGTGGTAGTACATAACAT [TGCATGCA_site978],9.44
17,CATATATCATAAATATGTACGAAATAAAAGAATCAT [XGTACX_site942],9.54
18,TTTTCTAAAATATTCATAATAAATCAAAAAAAAAAA [GTGCAC_negctrl_site320],8.81
19,TATAAATATGTATATACACACTTTTAATATTCATAA [CACACA_site7856],9.2

row,Sequence,gcPBM binding intensity (ln)
1,TTTTCTTACTATTGTAGTACAATATTATATTCTTTT [XGTACX_site1925],9.46
2,TGCGTATTCTTATTAGGTACACATATTCGTGATAAT [XGTACX_site5681],9.25
3,ATCGTGAATAATATCTGTACATATGAACACATATAT [XGTACX_site952],9.38
4,TCACATACATGAAAATGTACTTTTATAATTCCATAA [XGTACX_site1836],9.19
5,TATGACCTTAGAAATTGTACAAGAAAAAATGTTACA [XGTACX_site7084],9.11
6,ATATAAAATACATGGGTGCAATATATTAAACAAATA [GTGCAC_site9421],9.49
7,GTTATAAATAAATACACACATACAAAAATATGACGT [CACACA_site1154],9.78
8,TCTGTAAATACGTGCACACACAAATCACAAATGTGA [CACACA_site330],9.51
9,TAAATAATTTCACGAATGACAAAGATATAATAAGTT [CACACA_negctrl_site1430],9.5
10,TAAAGGTGAACAATACGTACATAAGAACTTATGAGG [XGTACX_site4216],9.32
11,ATAAATACACACAAGTGTACATACTTCTATAAATAT [XGTACX_site1845],9.36
12,TATTATATATTAAATGCATGTAAAAATAATATTAAA [TGCATGCA_site643],9.12
13,AATTATTTACCCTATACACACAAAACACGCTAAAAA [CACACA_site1211],9.81
14,ATATTATAATAAATGTGTACATATTGTAGAAATATT [XGTACX_site8101],9.4
15,ATTTTGTGCGCACACACATGCAAAAAGAAATATGAT [TGCATGCA_site261],9.73
16,AAAGAGAGTATCTAATGTACGTATGTATGTATATAT [XGTACX_site1780],9.47
17,TTTCGTAACTATTTGTGTACATATATATATATATAT [XGTACX_site2920],9.25
18,ATTTTCTTTTCCATAGTGCAATATAATTATCCATCA [GTGCAC_site9547],9.29
19,ATAAATATATGAAATATACACACTTCTTTGGTATTA [CACACA_site456],9.32
